SMILES strings stand for the structures. In all, about 310,000 compounds went through this assay and about 2,200 (0.71%) showed an effect of 50% or more. Effects have a minus sign here. Some of the results follow.

For this test, the target named is human ether-à-go-go-related gene (hERG) potassium channel (human, UniProt Q12809). In words: primary screen, population patch clamp on CHO cells stably expressing hERG.
human ether-à-go-go-related gene (hERG) potassium channel, sequence (Q12809 whole entry, looked up): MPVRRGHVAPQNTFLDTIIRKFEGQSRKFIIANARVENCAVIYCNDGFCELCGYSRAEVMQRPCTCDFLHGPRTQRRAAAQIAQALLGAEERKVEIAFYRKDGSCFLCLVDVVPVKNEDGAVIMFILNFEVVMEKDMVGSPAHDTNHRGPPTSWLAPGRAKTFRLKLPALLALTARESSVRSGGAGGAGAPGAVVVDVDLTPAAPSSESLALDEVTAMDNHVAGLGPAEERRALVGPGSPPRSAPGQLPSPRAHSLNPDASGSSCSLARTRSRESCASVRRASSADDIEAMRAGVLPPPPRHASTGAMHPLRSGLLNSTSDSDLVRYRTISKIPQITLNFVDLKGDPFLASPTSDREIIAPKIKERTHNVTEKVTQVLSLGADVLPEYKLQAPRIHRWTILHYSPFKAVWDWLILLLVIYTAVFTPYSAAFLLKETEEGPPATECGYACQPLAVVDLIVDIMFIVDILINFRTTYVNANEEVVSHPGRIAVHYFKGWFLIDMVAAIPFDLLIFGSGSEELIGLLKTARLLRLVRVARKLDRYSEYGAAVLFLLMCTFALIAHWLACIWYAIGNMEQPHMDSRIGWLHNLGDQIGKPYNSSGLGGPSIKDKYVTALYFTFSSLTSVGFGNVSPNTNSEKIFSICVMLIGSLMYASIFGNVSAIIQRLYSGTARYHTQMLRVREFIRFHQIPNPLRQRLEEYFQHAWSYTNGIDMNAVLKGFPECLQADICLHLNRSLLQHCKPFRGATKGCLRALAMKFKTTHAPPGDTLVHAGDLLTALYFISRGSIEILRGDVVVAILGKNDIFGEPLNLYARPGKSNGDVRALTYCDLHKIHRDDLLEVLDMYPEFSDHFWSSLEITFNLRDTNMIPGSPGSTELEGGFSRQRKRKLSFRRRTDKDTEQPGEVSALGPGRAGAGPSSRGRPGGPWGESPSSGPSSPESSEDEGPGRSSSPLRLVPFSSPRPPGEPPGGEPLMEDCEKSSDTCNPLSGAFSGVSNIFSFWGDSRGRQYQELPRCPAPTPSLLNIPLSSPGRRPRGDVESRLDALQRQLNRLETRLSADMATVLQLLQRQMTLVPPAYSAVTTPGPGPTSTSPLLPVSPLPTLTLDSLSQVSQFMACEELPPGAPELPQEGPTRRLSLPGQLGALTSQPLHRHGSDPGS
Regarding `COC(=O)c1ccccc1NC(=O)C1CCN(c2ncnc3c2nc2n3CCCCC2)CC1`, the “hERG current change (%, negative = inhibition) at 1uM” value is 12.7%.

With `CCn1cc(CN2CCC(C(=O)Nc3cccc(-c4cccc(Cl)c4)c3)CC2)cn1`, the “hERG current change (%, negative = inhibition) at 1uM” value is -34.4%.

As for `O=C(Cc1cccs1)N/N=C/C=C/c1ccco1`, the “hERG current change (%, negative = inhibition) at 1uM” value came to 6.05%.

For the compound `CC(=O)c1ccc(N2CCN(S(=O)(=O)c3ccccc3)CC2)c(F)c1`, the “hERG current change (%, negative = inhibition) at 1uM” value came to 13.7%.

As for `NC(=S)N=Nc1c(O)n(CC(=O)Nc2ccccc2)c2ccccc12`, the “hERG current change (%, negative = inhibition) at 1uM” value is 14.5%.

As for `COC(=O)[C@@]1(Cc2ccc(OC)cc2)[C@H]2c3cc(C(=O)N4CCCC4)n(CCn4cc([N+](=O)[O-])nc4C)c3C[C@H]2CN1C(=O)c1ccccc1`, the “hERG current change (%, negative = inhibition) at 1uM” value stood at 13.3%.

Consider `CC(C)CC(CO)N1CCN(C(=O)c2ccc(Cl)c(Cl)c2)CCC1=O` (centres unmarked), for which the “hERG current change (%, negative = inhibition) at 1uM” value was 8.29%.

In the case of `CCOc1cccc(CNc2ccc(O)cc2)c1OCc1ccc(Cl)cc1Cl`, the “hERG current change (%, negative = inhibition) at 1uM” value came to 10.8%.

Consider `CCNC(=S)N/N=C(\C)c1ccc(N2CCOCC2)cc1`, for which the “hERG current change (%, negative = inhibition) at 1uM” value amounted to 18.7%.

As to `Nc1nc2c(C(=O)N3CCOCC3)nnn2c2ccccc12`, the “hERG current change (%, negative = inhibition) at 1uM” value is given as 17.5%.

For `O=C(COC(=O)C1CCN(c2ccc(C(F)(F)F)cn2)CC1)Nc1cc(F)ccc1F`, the “hERG current change (%, negative = inhibition) at 1uM” value worked out at 12.4%.

With `COCCN(C(=O)CSc1nnc(-c2cccc(C)c2)n1C)c1c(N)n(Cc2ccccc2)c(=O)[nH]c1=O`, the “hERG current change (%, negative = inhibition) at 1uM” value is 11.4%.

Consider `CC(=O)c1cccc(NC(=O)N2C3CCC2CC(NC(=O)C2CC2)C3)c1` (centres unmarked), for which the “hERG current change (%, negative = inhibition) at 1uM” value was 7.2%.

As to `NS(=O)(=O)c1ccc(CCNS(=O)(=O)c2cccc3cccnc23)cc1`, the “hERG current change (%, negative = inhibition) at 1uM” value is recorded as 14.2%.

Regarding `CCOC(=O)N1CCN(C(=O)c2cc3cc(Cl)ccc3[nH]2)CC1`, the “hERG current change (%, negative = inhibition) at 1uM” value is listed as 1.55%.

On to `Cc1nc2ccc(C(=O)N3CCN(c4ccccn4)CC3)cc2s1`, for which the “hERG current change (%, negative = inhibition) at 1uM” value was 11.5%.

Consider `Fc1cccc(/C=N/Nc2nccnc2Cl)c1`, for which the “hERG current change (%, negative = inhibition) at 1uM” value is given as 14.1%.

In the case of `CCC(C)NC(=O)c1ccc(N2CC3CC(C2)c2cccc(=O)n2C3)c(NC(=O)c2ccc(Br)o2)c1` (centres unmarked), the “hERG current change (%, negative = inhibition) at 1uM” value was 12.9%.

For `C=CCOc1ccc(/C=C2\SC(N3CCCCC3)=NC2=O)cc1`, the “hERG current change (%, negative = inhibition) at 1uM” value turned out to be 14.4%.

As for `O=C([O-])c1cc(-c2ccccc2)cc(-c2ccccc2)[n+]1Cc1ccccc1`, the “hERG current change (%, negative = inhibition) at 1uM” value turned out to be 7.44%.

With `COc1ccc(C(=O)NCc2nnc(SCC(=O)Nc3cccc(F)c3)o2)cc1`, the “hERG current change (%, negative = inhibition) at 1uM” value is given as 4.69%.

Turning to `Cc1ccc(OCC(=O)NCc2cccs2)c([N+](=O)[O-])n1`, the “hERG current change (%, negative = inhibition) at 1uM” value came out at 2.47%.

On to `Cc1cc(C(=O)NCc2ccc(Cl)cc2)n(-c2ccccc2)n1`, for which the “hERG current change (%, negative = inhibition) at 1uM” value is -8.92%.

For the compound `COc1ccc(OC)c(C(O)c2nc3ccccc3n2C(C)C)c1` (centres unmarked), the “hERG current change (%, negative = inhibition) at 1uM” value is on record as 12.9%.

As for `COc1c2ccoc2nc2c(OC)c(O)ccc12`, the “hERG current change (%, negative = inhibition) at 1uM” value turned out to be 14.6%.

As to `Cc1cccc(NS(=O)(=O)c2cc(C(=O)OCC(=O)Nc3cc(C)on3)ccc2C)c1`, the “hERG current change (%, negative = inhibition) at 1uM” value amounted to 5.22%.

Regarding `CCOC(=O)c1cc(-c2ccccc2)nn1Cc1cc(CC)no1`, the “hERG current change (%, negative = inhibition) at 1uM” value is 14.8%.

As for `CC(Oc1ccccc1F)C(=O)NNC(=O)CC(C)c1ccccc1` (centres unmarked), the “hERG current change (%, negative = inhibition) at 1uM” value turned out to be 12.4%.

In the case of `O=C(O)CC(CC(=O)Nc1ccc(F)c(Cl)c1)c1ccc(Cl)cc1Cl` (centres unmarked), the “hERG current change (%, negative = inhibition) at 1uM” value was 11.4%.

Take `Cc1ccc(CSc2nc3c(c(=O)[nH]2)CCC3)cc1`: the “hERG current change (%, negative = inhibition) at 1uM” value was 6.41%.

Turning to `Cc1ccc(C)c(NC(=S)Nc2ccc(S(=O)(=O)Nc3ncccn3)cc2)c1`, the “hERG current change (%, negative = inhibition) at 1uM” value is given as 8.01%.

As to `O=C(Nc1nnc(-c2ccco2)s1)C1CCN(S(=O)(=O)c2ccc(Cl)cc2)CC1`, the “hERG current change (%, negative = inhibition) at 1uM” value was 9.86%.

Consider `CCn1c(NC(=O)C(C)C)c2ccccc2nc1=O`, for which the “hERG current change (%, negative = inhibition) at 1uM” value was determined as 2.18%.

Turning to `O=C1CCCN1c1ccc(S(=O)(=O)NCc2ccco2)cc1`, the “hERG current change (%, negative = inhibition) at 1uM” value worked out at 1.5%.

In the case of `CCOc1ccc(C(=O)Nc2cccc(-c3ccc4nncn4n3)c2)cc1`, the “hERG current change (%, negative = inhibition) at 1uM” value amounted to 14.7%.

Turning to `COc1cc(-c2cc(C(=O)Nc3cccc(S(=O)(=O)N(C)C)c3)c3ccccc3n2)cc(OC)c1OC`, the “hERG current change (%, negative = inhibition) at 1uM” value came to 8.12%.

Consider `Cc1ccc(NC(=O)CCc2nc3ccccc3[nH]2)cc1C`, for which the “hERG current change (%, negative = inhibition) at 1uM” value is recorded as 5.46%.

Regarding `CCOc1cc(C2C3=C(CCCC3=O)N(CC(=O)O)C3=C2C(=O)CCC3)ccc1OC`, the “hERG current change (%, negative = inhibition) at 1uM” value is 16.6%.

With `COc1ccc(NC(=O)Nc2c(C)n(C)n(-c3ccccc3)c2=O)cc1OC`, the “hERG current change (%, negative = inhibition) at 1uM” value came out at 10.3%.

`Cc1ccc(NNC(N)=S)cc1Cl`: the “hERG current change (%, negative = inhibition) at 1uM” value amounted to 4.71%.

With `COc1ccccc1C(CNC(=O)c1cccc(NS(=O)(=O)c2ccc(C)c(F)c2)c1)N1CCCC1` (centres unmarked), the “hERG current change (%, negative = inhibition) at 1uM” value is -4.1%.

Consider `COc1cccc(/C=N/n2c(C3CCCCC3)n[nH]c2=S)c1OC`, for which the “hERG current change (%, negative = inhibition) at 1uM” value is listed as 11.3%.

In the case of `O=Nc1c(O)n(Cc2c(Cl)cccc2Cl)c2ccccc12`, the “hERG current change (%, negative = inhibition) at 1uM” value was determined as 16.4%.

Take `Cc1ccc(-c2nc(C(=O)NCCCN3CCOCC3)cc3c2[nH]c2ccccc23)cc1`: the “hERG current change (%, negative = inhibition) at 1uM” value is given as 9.98%.

Source of the values: paper PMC4336329 (PLoS ONE, 2015).
